The campaign covered roughly 72,000 compounds. About 710 (0.99%) were called active. Inconclusive results, whose numbers are uncertain, are shown with a selection of clear calls. Calls follow the shape of the dose curve; as a rule, active = well fitted inhibition curve with a large enough effect; inconclusive = small, poorly fitted or top-dose-only effect; inactive = no such curve, though single readings can be large or run the other way. Potencies of inconclusive entries are left out as doubtful fits.
Test: qHTS Assay for Inhibitors of the ERK Signaling Pathway using a Homogeneous Screening Assay; also: nearly all actives have a fitted effect of over 55% in size
Details: HEK293-V1b, vasopressin-stimulated pERK AlphaScreen; activity, negative = inhibition: at 57.5 µM (top of the series) unless noted
Procedure, shortened: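 Overnight-seeded V1b-HEK293 cells in 1% FBS got compound, then vasopressin (25 nM final, 5 min, 37C), then lysis buffer. AlphaScreen detection of phospho-ERK; activity normalized to basal and full-stimulation controls.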
% is scaled to controls: 0 for no effect and ±100 for the full control effect; potency is read from the fitted curve at half-maximal effect; tags tell the direction and shape of the fitted curve.

Row | Structure (SMILES) | Potency | activity, negative = inhibition
1 | CS(=O)(=O)Nc1ccc(N2CCCCC2)c(Cl)c1 | inconclusive [inhibitor, partial curve] | –
2 | CS(=O)(=O)Nc1cccc(-c2nc(NC3CC3)c3ccccc3n2)c1 | – | inactive: -21.8%
3 | CCc1c(C)sc(NC(=O)CC#N)c1C#N | – | inactive: -27.8%
4 | Cc1nn(-c2ccccc2)c2sc(-c3n[nH]c(=S)o3)cc12 | inconclusive [inhibitor, single point] | –
5 | CC(C)(C)c1cc(C(=O)/C=C/c2ccc(C(=O)O)cc2)cc(C(C)(C)C)c1 | inconclusive [inhibitor, single point] | –
6 | COc1ncc2nc(-c3ccc(F)cc3)c(=O)n(-c3ccccc3)c2n1 | inconclusive [inhibitor, partial curve, poor fit] | –
7 | COCCn1c(=O)c(CCc2ccccc2)nc2cnc(Oc3cccc(Cl)c3)nc21 | – | inactive: 23.3%
8 | COc1ccc(S(=O)(=O)N2CCN(c3ccccc3OC)CC2)cc1OC | inconclusive [inhibitor, partial curve] | –
9 | Oc1c(CN2CCc3ccccc3C2)cc(Cl)c2cccnc12 | inconclusive [inhibitor, partial curve] | –
10 | N#CCCn1c(=O)c(-c2cc(F)cc(F)c2)nc2cnc(Oc3cccc(Cl)c3)nc21 | inconclusive [inhibitor, partial curve] | –
11 | COc1ccc(C2C3=C(CCCC3=O)Nc3nc(SCc4ccccc4)nn32)cc1OC (stereo unspecified) | inconclusive [inhibitor, partial curve] | –
12 | COc1cccc(Nc2ncc3nc(C)c(=O)n(C[C@H]4CCCO4)c3n2)c1 | – | inactive: -1.66%
13 | CC(=O)Nc1nc(-c2ccccc2)nc(-c2ccccc2OC(C)=O)n1 | inconclusive [inhibitor, partial curve, poor fit] | –
14 | COc1cc(/C=C/C2=NC(=O)C(C)(C)O2)ccc1O | inconclusive [inhibitor, partial curve] | –
15 | COc1ccc(CCNC(=O)c2cccnc2)cc1OC | inconclusive [inhibitor, single point] | –
16 | O=c1cc(-c2ccccc2O)oc2cc(O)cc(O)c12 | inconclusive [inhibitor, single point] | –
17 | COC(=O)[C@@]1(Cc2ccc(OC)cc2)[C@H]2c3cc(C(=O)N4CCCC4)n(CCc4ccc(O)c(OC)c4)c3C[C@H]2CN1C(=O)c1ccccc1 | – | inactive: 1.83%
18 | CCSC1=C(C#N)C(c2cccc(OC)c2)CC(=O)N1 (stereo unspecified) | inconclusive [inhibitor, partial curve] | –
19 | Cc1ccc(C(=O)Nc2nc(COc3ccccc3)cs2)s1 | inconclusive [inhibitor, single point] | –
20 | CCC1CCCCN1C(=O)CSc1nnc(-c2ccc3c(c2)OCCO3)o1 (stereo unspecified) | inconclusive [inhibitor, single point] | –
21 | O=C(NCc1ccco1)C1CCCN(S(=O)(=O)c2ccc(-n3cnnn3)cc2)C1 (stereo unspecified) | – | inactive: 13.8%
22 | CCOC(=O)c1c(CN(CC)CC)oc2cc(Br)c(O)cc12 | inconclusive [inhibitor, single point] | –
23 | COC(=O)CSC1=C(C#N)C(c2ccccc2)CC(=O)N1 (stereo unspecified) | inconclusive [inhibitor, single point] | –
24 | CCOC(=O)c1ccc2c(c1)C1C=CCC1C(C(=O)O)N2 (stereo unspecified) | – | inactive: -22.8%

Row | Structure (SMILES) | Potency | activity, negative = inhibition
25 | O=C1c2ccccc2CC1Sc1nnc(-c2ccccn2)o1 (stereo unspecified) | inconclusive [inhibitor, partial curve] | –
26 | O=C(CSc1nc2ccccc2nc1SCC(=O)N1CCOCC1)N1CCOCC1 | – | inconclusive: -32.3% [inhibitor]
27 | COc1ccc(C2CC(=O)c3c(C)nc(N4CCN(Cc5ccccc5)CC4)nc3C2)cc1OC (stereo unspecified) | inconclusive [inhibitor, partial curve] | –
28 | CN(Cc1cccc2ccccc12)Cc1cccc2ccccc12 | – | inactive: 2.71% [at 11.5 µM]
29 | O=C(Nc1nccs1)C1CCCN(S(=O)(=O)c2cccc3cccnc23)C1 (stereo unspecified) | inconclusive [inhibitor, single point] | –
30 | NC(=O)c1ncn([C@@H]2O[C@@H](CO)[C@@H](O)[C@H]2O)c1O | – | inactive: 0.103%
31 | O=C(Nc1cccc(-c2cn3ccsc3n2)c1)c1ccccc1 | inconclusive [inhibitor, single point] | –
32 | COc1cccc(CNC(=O)c2cc3oc4ccccc4c3n2C)c1OC | inconclusive [inhibitor, full curve] | –
33 | COc1cccc(NC(=O)N2CCN(c3ccc(C(F)(F)F)cn3)CC2)c1 | inconclusive [inhibitor, partial curve] | –
34 | COCCn1c(=O)c(-c2cn(C)c3ccccc23)nc2cnc(Oc3ccccc3)nc21 | – | inactive: 39.6%
35 | COc1ccc(-c2c3c(=O)n(C)c(=O)n(C)c3cn2C2CCCCC2)cc1 | active: 15.8 µM | –
36 | COC1C=CO[C@@]2(C)Oc3c(C)c(O)c4c(O)c(c5c(nc6cc(C)ccn65)c4c3C2=O)NC(=O)/C(C)=C\C=CC(C)C(O)[C@@H](C)C(O)C(C)[C@@H](OC(C)=O)C1C (stereo partly specified) | inconclusive [inhibitor, partial curve] | –
37 | COCCn1c(C)cc(C(=O)CSc2nnc3ccccn23)c1C | – | inactive: -11.6%
38 | N#Cc1cccc(-c2nc(N3CCNCC3)c3ccccc3n2)c1 | – | inactive: -9.81%
39 | COc1ccc(C2CC(=O)N3CN(c4ccccc4F)CSC3=C2C#N)cc1OC (stereo unspecified) | inconclusive [inhibitor, single point] | –
40 | COc1ccc2[nH]cc(CCNc3cc(-c4ccccc4C(F)(F)F)ncn3)c2c1 | – | inactive: -9.68%
41 | C=CCN(CC=C)S(=O)(=O)c1ccc2nc(NC(=O)C(C)C)sc2c1 | inconclusive [inhibitor, single point] | –
42 | Cc1c(C#N)c2ccccc2n1CC(=O)O | inconclusive [inhibitor, partial curve] | –
43 | O=C(COc1ccc(Cl)cc1Cl)Nc1ccc2nc3n(c(=O)c2c1)CCCC3 | inconclusive [inhibitor, partial curve] | –
44 | CCOC(=O)Cn1cc(C(=O)c2ccco2)c2ccccc21 | – | inactive: 1.17%
45 | CC(C)CN1CC2(CCN(C(=O)c3cccc(F)c3)CC2)C1 | – | inactive: -12.9%
46 | Cc1sc2nc(SCc3nnc(-c4cccs4)o3)n(C3CCCC3)c(=O)c2c1C | – | inactive: 15.9%
47 | Cc1ccc(-c2nn(C)c(=O)c3ccccc23)cc1S(=O)(=O)N1CCOCC1 | inconclusive [inhibitor, single point] | –
48 | CSC1=C(C#N)C2(CCCC2)C(C#N)=C(N)N1 | inconclusive [inhibitor, single point] | –

Row | Structure (SMILES) | Potency | activity, negative = inhibition
49 | CCOc1ccc(NC(=O)CSc2nnc(COc3c(C)cccc3C)o2)cc1 | – | inactive: 2.81%
50 | O=C(Nc1ccccc1)OC1C2CCC1C(N1CCCCC1)CC2 (stereo unspecified) | – | inactive: -22.8%
51 | O=C(O)CCCC(=O)Nc1nc(-c2ccccc2)cs1 | – | inactive: -2.58%
52 | CCNc1ncc2nc(CCc3ccccc3)c(=O)n(Cc3cccc(OC)c3)c2n1 | – | inactive: 10.1%
53 | O=C(NCC1CCCO1)c1cccs1 (stereo unspecified) | – | inactive: -9.66%
54 | C=C(C)CSc1nc(N)c(C#N)c(-c2ccc(C)cc2)c1C#N | – | inactive: 65%
55 | Cc1csc(NC(=O)CCNS(=O)(=O)c2ccc3c(c2)c(=O)n(C)c(=O)n3C)n1 | inconclusive [inhibitor, single point] | –
56 | CCc1ccc(CNc2ccc(O)cc2)cc1 | inconclusive [inhibitor, full curve] | –
57 | COC(=O)c1cc(N2C(=O)C3C(C2=O)C2(C)C=CC3(C)O2)ccc1Cl (stereo unspecified) | inconclusive [inhibitor, single point] | –
58 | Cc1cc(-c2cccnc2)c(C#N)c(SCC#N)n1 | inconclusive [inhibitor, partial curve] | –
59 | COc1cccc(-c2ccc3ncnc(Nc4ccccc4)c3c2)c1 | inconclusive [inhibitor, partial curve] | –
60 | N#Cc1nc(COc2cccc(Cl)c2)oc1N1CCN(c2ccccc2)CC1 | inconclusive [inhibitor, single point] | –
61 | CC(=O)OCCNc1cc(N2CCN(C)CC2)c2noc3c2c1C(=O)c1ccccc1-3 | active: 15.8 µM | –
62 | COC(=O)c1cc(=O)n(Cc2ccc3c(c2)OCO3)c(=Nc2ccccc2)s1 | inconclusive [inhibitor, full curve] | –
63 | COC(=O)CCC(C)C1CCC2C3CC[C@H]4CC(O)CC[C@@]4(C)C3CC(O)[C@]12C (stereo partly specified) | inconclusive [inhibitor, single point] | –
64 | CCc1nc2scc(-c3ccccc3)c2c(=O)n1N | inconclusive [inhibitor, single point] | –
65 | O=C(Nc1ccc2c(c1)OCO2)c1ccc(Br)c(S(=O)(=O)N2CCCC2)c1 | inconclusive [inhibitor, partial curve] | –
66 | CCN(CC)S(=O)(=O)c1cc(C(=O)Nc2ccccn2)ccc1C | inconclusive [inhibitor, single point] | –
67 | CCOC(=O)c1ccc(NCc2nc3ccccc3[nH]2)cc1 | inconclusive [inhibitor, partial curve] | –
68 | Cc1cccc(CNc2ccnc(-c3ccc(N(C)C)cc3)n2)c1 | inconclusive [inhibitor, single point] | –
69 | COC(=O)[C@H](C)NC(=O)Nc1ccc(Oc2ccccc2)cc1 | active: 25.1 µM | –
70 | CC(C)Cn1c(-c2cccs2)nc2nc3ccccc3nc21 | – | inactive: 6.29%
71 | COc1ccc(Cl)cc1NC(=O)N1CCN(CCc2ccccc2)CC1 | inconclusive [inhibitor, single point] | –
